Measured values reported in a collection of fitness landscapes (doi:10.1016/j.celrep.2020.107928).
Over roughly 81,000 sequences, “one-hybrid fitness for binding parS DNA” has its median near -0.17; the highest 2% begin near 0.51. The list shows a part of the results.

B1: Caulobacter ParB omega fusion; a variant is named by its letters at X, in order, B8GW30 (parent)
chain: MESVVVGEPGMSEGRRGLGRGLSALLGEVDAAPAQAPGEQLGGSREAPIEILQRNPDQPRRTFREEDLEDLSNSIREKGVLQPILVRPSPDTAGEYQIVAGERAWRAAQRAGLKTVPIMVRELDDLAVLEIGIIENVQRADLNVLEEALSYKVLMEKFERTQENIAQTIGKSXSHVANXMRLLXLPDEVQSYLVSGELTAXHARAIAAAADPVALAKQIIEGGLSVRETEALARKAPNLSAGKSKGGRPPRVKDTDTQALESDLSSVLGLDVSIDHRGSTGTLTITYATLEQLDDLCNRLTRGI

Variants of: B1
Assay: one-hybrid fitness for binding parS DNA (scaled: cognate 1, non-cognate 0); higher = stronger binding
Details: with parS DNA site
Method in brief: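 Values were rescaled so that cognate is 1 and non-cognate is 0. Each is a fitness, the log change in a variant's read ratio to wild type from Illumina reads of plasmids before and after selection, with three replicate libraries pooled and variants under 10 reads dropped. Selection of the Caulobacter ParB libraries, four specificity codons randomised, used E. coli USO with a HIS3 reporter, site 19 bp from the promoter, on M9-minus-histidine with 0.1 mM IPTG and 5 mM 3-AT for 48 hours at 37°C.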

Row | Variant | one-hybrid fitness for binding parS DNA
1 | RMLE | ≤ 0.2
2 | ASYS | ≤ 0.2
3 | RMYF | 0.289
4 | VWDR | ≤ 0.2
5 | AWDR | ≤ 0.2
6 | CKSN | ≤ 0.2
7 | RHTP | ≤ 0.2
8 | WCIR | ≤ 0.2
9 | TPRE | ≤ 0.2
10 | AQMI | ≤ 0.2
11 | PVMW | ≤ 0.2
12 | AGCY | ≤ 0.2
13 | ASTI | ≤ 0.2
14 | KLSA | ≤ 0.2
15 | HIWS | ≤ 0.2
16 | PPKI | ≤ 0.2
17 | RQKD | ≤ 0.2
18 | QARS | ≤ 0.2
19 | RHPG | 0.451
20 | PYRQ | ≤ 0.2
21 | VWMS | ≤ 0.2
22 | SQEL | ≤ 0.2
23 | KGFG | ≤ 0.2
24 | YATC | ≤ 0.2

Row | Variant | one-hybrid fitness for binding parS DNA
25 | PQWC | ≤ 0.2
26 | RRGV | ≤ 0.2
27 | LDQS | ≤ 0.2
28 | FAAH | ≤ 0.2
29 | PCER | ≤ 0.2
30 | WRVQ | ≤ 0.2
31 | TPTM | ≤ 0.2
32 | NNIC | ≤ 0.2
33 | QAAH | ≤ 0.2
34 | NNLT | ≤ 0.2
35 | NPFV | ≤ 0.2
36 | EFGR | ≤ 0.2
37 | MSRA | ≤ 0.2
38 | LISR | ≤ 0.2
39 | KDTV | ≤ 0.2
40 | HIKG | ≤ 0.2
41 | RFPP | ≤ 0.2
42 | VVPN | ≤ 0.2
43 | WSST | ≤ 0.2
44 | CWDT | ≤ 0.2
45 | ETTF | ≤ 0.2
46 | RHMI | ≤ 0.2
47 | HRYW | ≤ 0.2
48 | YNNV | ≤ 0.2

Row | Variant | one-hybrid fitness for binding parS DNA
49 | VPAS | ≤ 0.2
50 | NLFM | ≤ 0.2
51 | RHSC | 0.924
52 | TCFR | ≤ 0.2
53 | CGQT | ≤ 0.2
54 | NLSI | ≤ 0.2
55 | KPRS | ≤ 0.2
56 | RQNV | ≤ 0.2
57 | CQHS | ≤ 0.2
58 | WSGA | ≤ 0.2
59 | QTDN | ≤ 0.2
60 | HKNA | ≤ 0.2
61 | SAVR | ≤ 0.2
62 | THQC | ≤ 0.2
63 | GRAN | ≤ 0.2
64 | PADQ | ≤ 0.2
65 | HRLI | ≤ 0.2
66 | GLCT | ≤ 0.2
67 | RMIA | 0.537
68 | AMES | ≤ 0.2
69 | HLQS | ≤ 0.2
70 | VHPI | ≤ 0.2
71 | VSMM | ≤ 0.2
72 | NQMA | ≤ 0.2

Row | Variant | one-hybrid fitness for binding parS DNA
73 | LAGF | ≤ 0.2
74 | VMSI | ≤ 0.2
75 | RAIK | ≤ 0.2
76 | EHKA | ≤ 0.2
77 | HPDD | ≤ 0.2
78 | ASTV | ≤ 0.2
79 | VRIL | ≤ 0.2
80 | AAHV | ≤ 0.2
81 | SPHH | ≤ 0.2
82 | RWMQ | ≤ 0.2
83 | RNPC | 0.358
84 | RAVF | ≤ 0.2
85 | EIKG | ≤ 0.2
86 | NMAC | ≤ 0.2
87 | LCRS | ≤ 0.2
88 | PSYA | ≤ 0.2
89 | GEET | ≤ 0.2
90 | NWAS | ≤ 0.2
91 | FRRP | ≤ 0.2
92 | NNYG | ≤ 0.2
93 | GHVM | ≤ 0.2
94 | HICH | ≤ 0.2
95 | AYAG | ≤ 0.2
96 | CEKW | ≤ 0.2

Row | Variant | one-hybrid fitness for binding parS DNA
97 | PQNW | ≤ 0.2
98 | RAYW | 0.27
99 | VCYS | ≤ 0.2
100 | GKPS | ≤ 0.2
101 | VDKN | ≤ 0.2
102 | TPAA | ≤ 0.2
103 | YLHT | ≤ 0.2
104 | NELA | ≤ 0.2
105 | PIVH | ≤ 0.2
106 | RQER | ≤ 0.2
107 | WQEG | ≤ 0.2
108 | QRFM | ≤ 0.2
109 | CPNR | ≤ 0.2
110 | SWTR | ≤ 0.2
111 | CKKG | ≤ 0.2
112 | RRKY | 0.856
113 | RNYI | ≤ 0.2
114 | CTSV | ≤ 0.2
115 | INDT | ≤ 0.2
116 | HRVW | ≤ 0.2
117 | TFET | ≤ 0.2
118 | NNLY | ≤ 0.2
119 | YDNW | ≤ 0.2
120 | RSQY | 0.459

Row | Variant | one-hybrid fitness for binding parS DNA
121 | QQYF | ≤ 0.2
122 | TVDT | ≤ 0.2
123 | YGVG | ≤ 0.2
124 | RIEW | ≤ 0.2
125 | WTDS | ≤ 0.2
126 | HLIW | ≤ 0.2
127 | LKQT | ≤ 0.2
128 | VYLS | ≤ 0.2
129 | SERF | ≤ 0.2
130 | KADL | ≤ 0.2
131 | QKMA | ≤ 0.2
132 | KRTH | ≤ 0.2
133 | CYEL | ≤ 0.2
134 | IPMR | ≤ 0.2
135 | HGLC | ≤ 0.2
136 | QISW | ≤ 0.2
137 | KYRR | ≤ 0.2
138 | LDLM | ≤ 0.2
139 | TGYS | ≤ 0.2
140 | YDQG | ≤ 0.2
141 | WFRC | ≤ 0.2
142 | HFSD | ≤ 0.2
143 | ARVP | ≤ 0.2
144 | MSLA | ≤ 0.2

Row | Variant | one-hybrid fitness for binding parS DNA
145 | HNNR | ≤ 0.2
146 | PEWA | ≤ 0.2
147 | KRNQ | ≤ 0.2
148 | WGQS | ≤ 0.2
149 | YSER | ≤ 0.2
150 | MRTS | ≤ 0.2
151 | TDLN | ≤ 0.2
152 | MSQG | ≤ 0.2
153 | TTWN | ≤ 0.2
154 | QPWS | ≤ 0.2
155 | SKVY | ≤ 0.2
156 | HMTY | ≤ 0.2
157 | YCVT | ≤ 0.2
158 | WQTF | ≤ 0.2
159 | RSSK | ≤ 0.2
160 | PICE | ≤ 0.2
161 | KYDN | ≤ 0.2
162 | LVTP | ≤ 0.2
163 | KVMG | ≤ 0.2
164 | AIKC | ≤ 0.2
165 | MWMC | ≤ 0.2
166 | NWLC | ≤ 0.2
167 | LYEC | ≤ 0.2
168 | SLMF | ≤ 0.2

Row | Variant | one-hybrid fitness for binding parS DNA
169 | KYLV | ≤ 0.2
170 | SVNP | ≤ 0.2
171 | ELDR | ≤ 0.2
172 | SITD | ≤ 0.2
173 | TNKC | ≤ 0.2
174 | RNEG | 0.677
175 | SPCS | ≤ 0.2
176 | LHNM | ≤ 0.2
177 | PYGS | ≤ 0.2
178 | TQMY | ≤ 0.2
179 | QLGG | ≤ 0.2
180 | HSLA | ≤ 0.2
181 | ATVS | ≤ 0.2
182 | WWHR | ≤ 0.2
183 | MINT | ≤ 0.2
184 | SVFK | ≤ 0.2
185 | WYTS | ≤ 0.2
186 | APHE | ≤ 0.2
187 | YYYS | ≤ 0.2
188 | DDGE | ≤ 0.2
189 | DFTG | ≤ 0.2
190 | RLDD | ≤ 0.2
191 | QPMV | ≤ 0.2
192 | QICC | ≤ 0.2

Row | Variant | one-hybrid fitness for binding parS DNA
193 | PKVW | ≤ 0.2
194 | RIPP | ≤ 0.2
195 | AMTR | ≤ 0.2
196 | LHVL | ≤ 0.2
197 | DKAS | ≤ 0.2
198 | KAVR | ≤ 0.2
199 | RMTQ | ≤ 0.2
200 | QQAM | ≤ 0.2
201 | TPTS | ≤ 0.2
202 | FAES | ≤ 0.2
203 | QSAI | ≤ 0.2
204 | KFRW | ≤ 0.2
205 | YMPG | ≤ 0.2
206 | CTLA | ≤ 0.2
207 | KHII | ≤ 0.2
208 | YFSS | 0.215
209 | AHHS | ≤ 0.2
210 | LHLS | ≤ 0.2
211 | EHPS | ≤ 0.2
212 | YMTL | ≤ 0.2
213 | QMRM | ≤ 0.2
214 | PSIL | ≤ 0.2
215 | HAYP | ≤ 0.2
216 | ISTV | ≤ 0.2

Row | Variant | one-hybrid fitness for binding parS DNA
217 | PMAR | ≤ 0.2
218 | TVRI | ≤ 0.2
219 | SSPG | ≤ 0.2
220 | RHAK | ≤ 0.2
221 | TNFT | ≤ 0.2
222 | IAKV | ≤ 0.2
223 | KMAE | ≤ 0.2
224 | INHG | ≤ 0.2
225 | HAVG | ≤ 0.2
226 | AFWR | ≤ 0.2
227 | EGYC | ≤ 0.2
228 | GLSA | ≤ 0.2
229 | GCAN | ≤ 0.2
230 | DNQK | ≤ 0.2
231 | DSGG | ≤ 0.2
232 | KIPC | ≤ 0.2
233 | GYVE | ≤ 0.2
234 | QRYC | ≤ 0.2
235 | QAVQ | ≤ 0.2
236 | FMDR | ≤ 0.2
237 | FRLM | ≤ 0.2
238 | SYYT | ≤ 0.2
239 | YNDG | ≤ 0.2
240 | PWIR | ≤ 0.2

Row | Variant | one-hybrid fitness for binding parS DNA
241 | DGLC | ≤ 0.2
242 | NPWC | ≤ 0.2
243 | GLWC | ≤ 0.2
244 | EPYE | ≤ 0.2
245 | HRPV | ≤ 0.2
246 | IYRL | ≤ 0.2
247 | QNDS | ≤ 0.2
248 | RGTF | ≤ 0.2
249 | DDPN | ≤ 0.2
250 | PHTA | ≤ 0.2
251 | HRDC | ≤ 0.2
252 | FEYR | ≤ 0.2
253 | VDQH | ≤ 0.2
254 | PRLT | ≤ 0.2
255 | QNIP | ≤ 0.2
256 | TDLI | ≤ 0.2
257 | CIHW | ≤ 0.2
258 | TETQ | ≤ 0.2
259 | SLKH | ≤ 0.2
260 | APHT | ≤ 0.2
261 | SHHT | ≤ 0.2
262 | RHTY | 0.41
263 | KFGT | ≤ 0.2
264 | MKRD | ≤ 0.2

Row | Variant | one-hybrid fitness for binding parS DNA
265 | DRLG | ≤ 0.2
266 | MRAD | ≤ 0.2
267 | HHAS | ≤ 0.2
268 | FVIR | ≤ 0.2
269 | YFES | ≤ 0.2
270 | DHNG | ≤ 0.2
271 | FCHT | ≤ 0.2
272 | LSYC | ≤ 0.2
273 | MRKH | ≤ 0.2
274 | AKDD | ≤ 0.2
275 | HIPF | ≤ 0.2
276 | LRSG | ≤ 0.2
277 | FLYR | ≤ 0.2
278 | ARKR | ≤ 0.2
279 | VSWS | ≤ 0.2
280 | SQCS | ≤ 0.2
281 | WQRG | ≤ 0.2
282 | TPAF | ≤ 0.2
283 | LFIV | ≤ 0.2
284 | GNPV | ≤ 0.2
285 | WPLG | ≤ 0.2
286 | EYYC | ≤ 0.2
287 | FTYI | ≤ 0.2
288 | QIPD | ≤ 0.2

Row | Variant | one-hybrid fitness for binding parS DNA
289 | EKAN | ≤ 0.2
290 | KMVG | ≤ 0.2
291 | GQRS | ≤ 0.2
292 | RNIW | ≤ 0.2
293 | GTFW | ≤ 0.2
294 | YPNC | ≤ 0.2
295 | DGVT | ≤ 0.2
296 | IGDT | ≤ 0.2
297 | QFMV | ≤ 0.2
298 | DSGW | ≤ 0.2
299 | TPCM | ≤ 0.2
300 | QHCA | ≤ 0.2
301 | TNSF | ≤ 0.2
302 | PIND | ≤ 0.2
303 | PVCS | ≤ 0.2
304 | EGCT | ≤ 0.2
305 | HTFF | ≤ 0.2
306 | QAPV | ≤ 0.2
